Results taken from the BET-seq Pho4 binding data (Le et al. 2018).
Some of the results follow. The energies were worked out here from pooled read counts, against the library average; single values are noisy.

Target: T1, Pho4 (S. cerevisiae) (UniProt P07270)
T1 sequence: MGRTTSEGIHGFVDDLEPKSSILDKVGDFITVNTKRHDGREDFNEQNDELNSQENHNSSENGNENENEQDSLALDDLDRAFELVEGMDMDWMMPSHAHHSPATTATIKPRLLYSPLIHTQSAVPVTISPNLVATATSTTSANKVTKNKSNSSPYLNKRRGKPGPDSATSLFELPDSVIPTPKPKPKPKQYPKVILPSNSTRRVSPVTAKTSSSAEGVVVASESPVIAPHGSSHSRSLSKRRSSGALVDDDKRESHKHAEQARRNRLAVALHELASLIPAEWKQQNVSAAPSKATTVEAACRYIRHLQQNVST
Assay: relative binding free energy (BET-seq); higher = weaker binding
Conditions: reference: library average

Sequence	relative binding free energy [kcal/mol]
TATGGCACGTGCATTG	-0.09
TGCGGCACGTGTGCGT	-0.08
GGTTTCACGTGGTGCA	0.2
TGTGACACGTGAATTG	0.07
TTGCTCACGTGGTAGA	0.21
TACTTCACGTGGGTGC	0.18
TAGTCCACGTGGGGTG	-0.15
TATAGCACGTGAGAGA	0.24
GCGTACACGTGGTAGG	-0.06
TGTGGCACGTGGTTCG	-0.11
GAAGTCACGTGTTATA	0.18
TGAAGCACGTGGCGGG	-0.27
GTTTGCACGTGAGATG	0.31
TTTATCACGTGGAGAG	0.09
GTTGGCACGTGGACTT	-0.08
GTGGTCACGTGGTCGT	0.07
GTGCACACGTGTTTTA	0.05
TGTGACACGTGAGGGC	0.15
CTATTCACGTGTAGGA	0.2
GATTTCACGTGGGGTG	0.22
TGGATCACGTGGGGGC	0.01
TATAGCACGTGGTGAG	-0.14
GATAGCACGTGGTTTG	-0.08

Sequence	relative binding free energy [kcal/mol]
TAATGCACGTGGCGGA	-0.18
TTTCACACGTGGGAGA	0.05
ATTAGCACGTGTGGAC	-0.03
TTTAACACGTGGATTC	0.02
TCTTTCACGTGTGTGC	0.23
AAGTTCACGTGGGATG	0.19
TGGTACACGTGCGATG	0.04
TGGTACACGTGCAAGT	0.26
ATGCGCACGTGACGGT	0.11
TTGTACACGTGAGGTA	0.29
ATTTACACGTGGATAT	0.03
CGATGCACGTGTGATG	-0.1
CTTTTCACGTGTGTCG	0.42
TGAGACACGTGTAATG	0.14
GGGTCCACGTGAGAGG	0.34
TGTGGCACGTGATACG	-0.07
AGTTTCACGTGGGAAG	0.29
TTCGTCACGTGGTTTC	0.02
GTCTCCACGTGGGTGT	-0.04
TGGTTCACGTGGTCAC	0.33
TTTTTCACGTGTGACT	0.29
TGATACACGTGAAGGT	0.26
GATATCACGTGATAGG	0.32

Sequence	relative binding free energy [kcal/mol]
CGGTTCACGTGTTTGC	0.19
TAGGGCACGTGGATGC	-0.09
AGGGTCACGTGTCTTA	0.08
TATTGCACGTGTTTGA	-0.07
GTTGCCACGTGTAGGT	0.05
GTCTACACGTGGATGG	0.02
GGAGGCACGTGGATCG	-0.18
ACTGTCACGTGTAGGG	0.05
AAGTTCACGTGGAGGG	0.23
TAAGTCACGTGTTTTT	0.08
GCATGCACGTGAGGAG	0.25
TATATCACGTGGTGTG	0.04
ATGATCACGTGGCTGT	-0.05
GCCGTCACGTGTAGGT	0.09
GGGGACACGTGTGCAA	0.19
TAGAGCACGTGGGAGT	-0.13
CAGAGCACGTGGGCGG	-0.25
AGGAACACGTGGGTCA	-0.02
GAGGACACGTGCTGGT	0.02
GCGTCCACGTGTAGGG	0
AGTGTCACGTGTTCTT	0.07
GGTGGCACGTGCGGCC	-0.21
CCGATCACGTGTGGGT	0.19

Sequence	relative binding free energy [kcal/mol]
GGGTGCACGTGATAGG	0.12
AGCATCACGTGCGGGG	0.13
GGGGGCACGTGGATCA	-0.17
CTGGTCACGTGAAGAG	0.24
GCGTTCACGTGGGAAG	0.25
TATCTCACGTGTCGTG	0.19
TCGAGCACGTGTGGCG	0.05
TCGGGCACGTGGAGAT	-0.13
GTACGCACGTGTGGTG	-0.12
TATGTCACGTGCATTT	0.16
ATGTACACGTGGTATG	-0.01
TGGGACACGTGAACGT	0.21
TGGCGCACGTGGATTT	-0.1
TAGTGCACGTGGAGAA	0
GTAGTCACGTGTAGGA	0.2
TATTGCACGTGTATCT	-0.01
TCTTGCACGTGTATGA	0.01
TGATACACGTGGTTGA	-0.1
GGGTGCACGTGGTCCG	-0.14
GTTATCACGTGTTATT	0.32
GTCCTCACGTGGGTGT	0.23
TTGTGCACGTGCGGAG	-0.03
GTGTTCACGTGAAGCG	0.29

Sequence	relative binding free energy [kcal/mol]
TGCTTCACGTGTTGAA	0.29
TTCAACACGTGTTTGG	0.14
AGAGGCACGTGTATAT	-0.15
CTAGTCACGTGGACGT	0.22
TAGAGCACGTGGGTGG	-0.29
TATAACACGTGTGGTT	0.15
TTTGTCACGTGTACAG	0.04
TAAATCACGTGTTAGA	0.12
TTAGGCACGTGTGTCG	-0.1
TTATCCACGTGTTTGT	-0.07
GTATTCACGTGGATAG	0.22
AGCGCCACGTGTGGTG	-0.16
GGGTACACGTGATGGA	0.16
TCGTACACGTGGGGTG	-0.16
GTGTACACGTGCTGAA	0.12
GTCTGCACGTGGGTGC	-0.03
GAATACACGTGTGTGG	0.01
ATTGTCACGTGTAGCA	0.1
ATGGTCACGTGCTTGT	0.08
AATTGCACGTGGTTGG	-0.02
GTAATCACGTGTATGA	0.13
TATATCACGTGGGTAG	-0.06
GGTTACACGTGATTTA	0.19
